Experimental data as given in PubChem BioAssay AID743279 (National Center for Advancing Translational Sciences (NCATS), 2014).
Out of some 360,000 compounds screened, about 17,000 (4.7%) were called active. Inconclusive results, whose numbers are uncertain, are shown with a selection of clear calls. Rule as the data show it: active = activity change below about -50%; inconclusive = mostly about -30% to -49%; inactive = weaker than that.

Test: qHTS for Inhibitors of Inflammasome Signaling: IL-1-beta AlphaLISA Primary Screen
Conditions: THP-1 LPS/ATP IL-1B secretion, 16 h; at 57.5 µM, hits give low values
Method in brief: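 THP-1 cells pretreated 1 hr with compounds (up to 57.5 uM final), then stimulated with LPS (250 ng/mL final) plus ATP (1.25 mM final); secreted IL-1B measured by AlphaLISA after 16 hr, decreased signal indicating inhibition.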
% is scaled to controls: 0 for no effect and ±100 for the full control effect.

| Compound | activity change |
| --- | --- |
| C=CCNC(=S)N1CCN(c2cc3c(cc2F)c(=O)c(C(=O)O)cn3CC)CC1 | inconclusive: -38.1% |
| Cc1nc(N2CCOCC2)c2c(C)c(C(=O)Nc3ccc(F)cc3F)sc2n1 | active: -68.3% |
| COc1ccc(C(C)=O)cc1CSc1ccc(S(=O)(=O)N2CCOCC2)cn1 | inactive: -15.3% |
| CCOc1ccc(N2CC(C(=O)Nc3nnc(C4CCCCC4)s3)CC2=O)cc1 (stereo unspecified) | inactive: 19.3% |
| N#Cc1c(/N=C/C=C/c2ccccc2)sc2c1CCCC2 | inconclusive: -38.5% |
| CCC(C)(c1nnnn1-c1c(C)cccc1C)N(N=O)c1ccccc1Cl (stereo unspecified) | inactive: 0% |
| Nn1c(SCC(=O)NCC2CCCO2)nnc1-c1ccc(OC(F)F)cc1 (stereo unspecified) | inactive: -0.713% |
| Clc1nc(Nc2ccccc2)nc(Nc2ccccc2)n1 | active: -99.9% |
| O=C(Nc1cccc(F)c1)c1ccc(-c2ccccc2Cl)o1 | inactive: -28.6% |
| CN(C)/C=C/C(=O)c1ccn(S(=O)(=O)c2ccccc2)c1 | inactive: 0% |
| O=C(/C=C/Nc1ccccc1F)c1cccs1 | inconclusive: -34.6% |
| COc1ccc(CN=CC2=C(O)CNC2=O)cc1 | inconclusive: -42.2% |
| CN1CCN(C(=O)CCCOc2cc(=O)n(C)c3ccccc23)CC1 | inconclusive: -33.5% |
| CCOC(=O)C1=C(C)NC(C)=C(C(=O)OCC)C1C(=O)OCC(=O)N1CCc2ccccc21 | inconclusive: -30.1% |
| O=C(CNC(=O)c1ccncc1)N/N=C/c1cc(Br)ccc1OCc1ccccc1 | inconclusive: -48.8% |
| COc1ccc(-c2noc(C3CCCN(C(=O)c4cccc(C)c4)C3)n2)cc1 (stereo unspecified) | inconclusive: -40.3% |
| O=C(Nc1ccccc1N1CCCCC1)c1ccc([N+](=O)[O-])o1 | inconclusive: -36.8% |
| O=C1c2ccccc2NC(c2cccc(F)c2)N1Cc1ccccc1 (stereo unspecified) | inconclusive: -46.1% |
| COc1cc2c(cc1OC)C(c1ccc(-c3ccccc3Cl)o1)=NCC2 | active: -92.1% |

| Compound | activity change |
| --- | --- |
| CCC(C(=O)Nc1ccccc1OC)n1c(C(=O)OC)cc2ccsc21 (stereo unspecified) | active: -57% |
| CS(=O)(=O)N1Cc2cc(C(=O)NCC3CCCCC3)nc(-c3cccc(-c4cccnc4)c3)c2[C@H]1CCO | inconclusive: -48.3% |
| Cc1ccc(-n2cc(CN3CCC(CO)(Cc4cccc(C(F)(F)F)c4)CC3)cn2)cc1 | active: -112% |
| CC(C)(CO)[C@@H](O)C(=O)NCCC(=O)O | inactive: 2.56% |
| CCn1cnc2cc(NC(=O)c3ccc(C)cc3)ccc21 | inconclusive: -36.9% |
| CNc1cncc(-c2ccoc2)n1 | inactive: 5.45% |
| CSCC[C@H](NC(=O)Cc1ccc(Cl)cc1)C(=O)N1CCC2(CC1)NCCc1[nH]cnc12 | inconclusive: -36.4% |
| CN(CCOc1ccc(Cl)cc1)Cc1cccc(S(=O)(=O)N(C)C)c1 | inconclusive: -46.3% |
| COc1ccc(Nc2nc(N3CCOCC3)nc(N3CCOCC3)n2)cc1Cl | active: -57.8% |
| N#Cc1ccsc1NC(=O)C1CC(=O)N(Cc2ccccc2)C1 (stereo unspecified) | inactive: 14% |
| CCC(CO)NCc1ccccc1OC(C)C (stereo unspecified) | inactive: -13.2% |
| CC(C)(C)c1ccc(-n2nc(C#N)c(Cl)cc2=O)cc1 | active: -96.9% |
| O=C(N/N=C/c1ccccc1F)C(=O)N1CCCCCC1 | inactive: 16.6% |
| Cc1cccc(Cn2cnc3c(N)c(C)c(C)cc32)c1 | inconclusive: -40.4% |
| Cc1ccc(CNCc2cc(Cl)ccc2O)cc1 | inconclusive: -34.6% |
| CC(C)(C)c1cc(CN2CCC(O)CC2)cc(C(C)(C)C)c1O | inconclusive: -35.7% |
| FC(F)(F)c1cc(CCN2C(=S)NC[C@@H]2c2ccccc2)cc(C(F)(F)F)c1 | inconclusive: -33.3% |
| N=c1c2c(n(Cc3ccc(F)cc3)c3c1CCC3)CCC2 | inconclusive: -44.6% |
| CC(=NNC(N)=S)c1ccc2cc3c(cc2c1)OCO3 | inconclusive: -34.6% |

| Compound | activity change |
| --- | --- |
| Cc1ccccc1-c1ccc2c(c1)O[C@@H](CN(C)C(=O)Nc1ccc(C(F)(F)F)cc1)[C@H](C)CN([C@@H](C)CO)S2(=O)=O | inconclusive: -39.3% |
| c1ccc(COc2ccccc2CNCc2cccnc2)cc1 | inconclusive: -34.3% |
| COc1ccc(CN(C)C(=O)CNC(=O)c2sc3ccccc3c2Cl)c(OC)c1OC | inconclusive: -38% |
| N#CC(C(=O)c1ccc(S(=O)(=O)N2CCCCCC2)cc1)c1nc2ccccc2[nH]1 (stereo unspecified) | inconclusive: -38.9% |
| O=C(Nc1ccc(Cl)c(Cl)c1)N(CCCN1CCOCC1)Cc1cccnc1 | inconclusive: -33.8% |
| O=C(Nc1ccc(F)cc1)Oc1ccc[nH]c1=O | inconclusive: -32% |
| Cc1cccc(NC(=O)c2cc3c(=O)n4ccccc4nc3n(CC(C)C)c2=N)c1 | inactive: 4.13% |
| N#CC1=C(N)C(C#N)(C#N)C(c2ccncc2)C2CN(C(=O)OCc3ccccc3)CC=C12 (stereo unspecified) | inconclusive: -30.3% |
| O=C(Nc1ccon1)c1ccc(N2CCCCC2)c([N+](=O)[O-])c1 | inconclusive: -43.7% |
| COc1ccc(CC(=O)N2CCC(Nc3nc4ccccc4n3Cc3ccc(F)cc3)CC2)cc1 | inconclusive: -48% |
| O=C(NCC1CCCO1)c1cc(-c2ccccc2)on1 (stereo unspecified) | active: -79.9% |
| COc1ccc(N2CCN(C(=O)CC(NC(N)=O)c3cccc(Oc4ccccc4)c3)CC2)cc1 (stereo unspecified) | inconclusive: -30.5% |
| COc1ccc(C2c3c(ncn(CCN4CCOCC4)c3=N)Oc3ccc4ccccc4c32)cc1 (stereo unspecified) | inconclusive: -33.5% |
| Fc1ccc(C2=NNC(=NCc3ccccc3)SC2)cc1F | inconclusive: -39.5% |
| NC(=O)c1cc(C(=O)c2ccc(Cl)cc2Cl)c[nH]1 | inconclusive: -37% |
| COc1cc([C@@H]2c3cc4c(cc3[C@@H](O)[C@H]3COC(=O)[C@H]23)OCO4)cc(OC)c1O[Si](C)(C)C(C)(C)C | active: -87.9% |
| Cn1c(/C(C#N)=C/c2ccncc2)nc2ccccc21 | active: -52.3% |
| COc1ccc(CCNC(=O)c2ccc(-c3ccc([N+](=O)[O-])cc3Cl)o2)cc1OC | inconclusive: -34.9% |
